Assay results taken from the supplement of paper PMC4166925.
± gives the standard deviation of the averaged measurements. In all, about 33,000 sequences were measured (“E-score (dimensionless, -0.5 to 0.5)”: median about -0.049, highest 2% from about 0.37 on). The list shows a part of the results.

What follows are sequences tested on T1, PmTbr T-box DNA-binding domain (GST fusion) (assay: PBM E-score of 8-mer (E-score (dimensionless, -0.5 to 0.5)); Tbr is Tbrain of the sea star Patiria miniata (Pm) or the sea urchin Strongylocentrotus purpuratus (Sp); higher = stronger binding preference; most listed sequences are background and not binding sites). Settings: the construct has about 5 more residues each side.
T1 sequence: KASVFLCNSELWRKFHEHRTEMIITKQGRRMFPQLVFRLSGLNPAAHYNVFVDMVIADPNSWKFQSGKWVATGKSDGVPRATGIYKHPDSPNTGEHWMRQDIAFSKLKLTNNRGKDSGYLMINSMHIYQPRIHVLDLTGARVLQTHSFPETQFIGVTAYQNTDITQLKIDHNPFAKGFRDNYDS
In short: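 Using the Universal PBM Analysis Suite, every ungapped 8-mer received an enrichment E-score averaged over duplicate arrays. Probe intensities came from double-stranded Universal Agilent oligonucleotide arrays incubated with 200 nM GST-fused Tbr T-box DNA-binding domain in PBS (pH 7.5). That protein was expressed in BL21 E. coli at 20 °C and purified by glutathione affinity chromatography.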

| Sequence | PBM E-score of 8-mer |
| --- | --- |
| CTAGCGTC | 0.0113 ± 0.051 |
| AGTGATCG | 0.0267 ± 0.044 |
| ATGAACGG | -0.0998 ± 0.028 |
| GTATAGAA | -0.151 ± 0.0043 |
| CAAAGAAC | -0.0272 ± 0.038 |
| ACCTCAAC | -0.0545 ± 0.07 |
| CCATCAGA | -0.268 ± 0.016 |
| CCCTCAAG | 0.0558 ± 0.0097 |
| AGGATCAC | 0.0241 ± 0.023 |
| CTGACGTA | 0.0494 ± 0.022 |
| CTCGGTGA | 0.0383 ± 0.022 |
| CCCTGACC | -0.2 ± 0.064 |
| CACCACAG | 0.131 ± 0.004 |
| ACCAAACA | 0.174 ± 0.037 |
| GAGAGATA | -0.0805 ± 0.045 |
| CCTACAAG | -0.206 ± 0.02 |
| ATGATAGA | -0.19 ± 0.0059 |
| CGACTCTA | 0.0869 ± 0.0033 |
| ACAGCCCC | -0.143 ± 0.055 |
| GCGCAGAC | 0.0469 ± 0.02 |
| CTCCCGAC | -0.00494 ± 0.06 |
| AAGGCTTC | -0.203 ± 0.044 |
| ACGCGATG | 0.00386 ± 0.015 |
| CCAGAAGA | -0.263 ± 0.019 |
| CCTTTCAA | -0.195 ± 0.072 |

| Sequence | PBM E-score of 8-mer |
| --- | --- |
| CGGTTCAG | -0.0948 ± 0.085 |
| CAGAAATG | -0.107 ± 0.046 |
| GGGTGAGA | 0.406 ± 0.009 |
| AAGTCGCG | 0.264 ± 0.023 |
| AACGAGCG | -0.0477 ± 0.036 |
| AATCTGGC | -0.0204 ± 0.028 |
| GATGCTCA | -0.0218 ± 0.063 |
| ATTCTGCG | 0.0271 ± 0.014 |
| CACCTGAA | 0.312 ± 0.0079 |
| CTGCTTTA | 0.0965 ± 0.035 |
| GGACAGTA | -0.175 ± 0.033 |
| CTACCGGA | -0.1 ± 0.11 |
| TCGGTTCA | -0.15 ± 0.091 |
| CACCTATC | 0.399 ± 0.0088 |
| GCTCGACC | -0.0431 ± 0.0074 |
| TAAAATAA | -0.0133 ± 0.044 |
| CGGACTTC | -0.059 ± 0.0073 |
| ACAGTAAT | 0.162 ± 0.038 |
| CTGGTGCC | 0.128 ± 0.018 |
| CGTTGAGC | -0.178 ± 0.06 |
| ACGCCCGT | 0.0279 ± 0.084 |
| TGGACGAA | -0.00136 ± 0.1 |
| ATACCATA | -0.0746 ± 0.076 |
| AAATAACT | -0.0561 ± 0.07 |
| CATTAAGG | -0.136 ± 0.13 |

| Sequence | PBM E-score of 8-mer |
| --- | --- |
| CGACACCG | 0.273 ± 0.033 |
| AGCTATGG | -0.258 ± 0.016 |
| TACGTCCA | -0.173 ± 0.0083 |
| ACGGCGAA | 0.0349 ± 0.045 |
| ATCTGTAC | -0.039 ± 0.0076 |
| CATGAAAC | -0.17 ± 0.039 |
| CCCTGGTA | 0.00846 ± 0.025 |
| GTCGACGA | 0.155 ± 0.015 |
| CAACCTAA | 0.0476 ± 0.071 |
| GAAAGGCA | -0.108 ± 0.0073 |
| GGAGTGGA | -0.0457 ± 0.03 |
| TAGGGCAA | -0.335 ± 0.015 |
| CAGTCATA | -0.0954 ± 0.04 |
| GATCGACC | -0.0814 ± 0.0024 |
| ACCCGACC | -0.08196 ± 0.00028 |
| CCGCTTGA | -0.034 ± 0.026 |
| GCGTGGCA | 0.0685 ± 0.054 |
| AACAGGCG | 0.1205 ± 0.00094 |
| ATAATGTA | -0.213 ± 0.04 |
| CAGTGTTA | 0.322 ± 0.0036 |
| CAGCTATG | 0.0981 ± 0.028 |
| CATGGACA | 0.0711 ± 0.019 |
| GTCGCGCA | 0.199 ± 0.039 |
| CTACCCAA | -0.175 ± 0.086 |
| CATGTCCA | -0.151 ± 0.064 |

| Sequence | PBM E-score of 8-mer |
| --- | --- |
| CTACAAAG | -0.214 ± 0.01 |
| GATCAGAA | -0.138 ± 0.043 |
| AGTGACAG | 0.357 ± 0.0084 |
| CATTCAGC | -0.161 ± 0.0035 |
| AAGGGCAA | -0.182 ± 0.04 |
| ATACCCCG | -0.1527 ± 0.00053 |
| ACTCTACG | 0.0543 ± 0.0073 |
| ACAGCGTA | -0.0359 ± 0.026 |
| GAAGGACA | -0.0775 ± 0.028 |
| GGAAACCA | -0.1389 ± 0.00081 |
| ACTTGTCG | 0.30022 ± 4.9e-05 |
| CAATCAAC | -0.0642 ± 0.048 |
| GGCCTGAA | -0.0982 ± 0.032 |
| AGTTTCTC | 0.11 ± 0.029 |
| AAATGTAA | 0.0753 ± 0.021 |
| ACCATTTC | -0.0217 ± 0.073 |
| CCCGTAAG | -0.0921 ± 0.11 |
| AACCCATC | -0.242 ± 0.016 |
| ATGGACAT | -0.195 ± 0.025 |
| CCTCTTTA | -0.0767 ± 0.023 |
| GTAGTGTA | 0.00343 ± 0.048 |
| GCTAAAGC | -0.0616 ± 0.096 |
| CCTAGATC | -0.0223 ± 0.021 |
| ATTATTGG | -0.0933 ± 0.025 |
| ACTCTGCA | 0.00895 ± 0.053 |

| Sequence | PBM E-score of 8-mer |
| --- | --- |
| CGTACAGC | -0.0541 ± 0.021 |
| GCGAGCCA | -0.00686 ± 0.019 |
| CAGATCGG | -0.0439 ± 0.039 |
| ATCACCTG | 0.379 ± 0.019 |
| TAAGTGAA | -0.101 ± 0.1 |
| CGCCACCC | 0.204 ± 0.06 |
| GGCAAGAC | -0.0607 ± 0.05 |
| GACCCAAA | -0.097 ± 0.012 |
| GTTATTCA | -0.231 ± 0.022 |
| ATGCACTA | -0.173 ± 0.11 |
| AGCGATAT | 0.115 ± 0.019 |
| GCCCTCCC | -0.251 ± 0.038 |
| CCAATTGA | -0.211 ± 0.034 |
| CAAAATAC | -0.134 ± 0.13 |
| ACGCACTC | 0.165 ± 0.016 |
| AGTAGCAT | -0.127 ± 0.067 |
| AAACTTGA | -0.0413 ± 0.01 |
| AAGACTCA | 0.119 ± 0.019 |
| AGTTGCAA | 0.0923 ± 0.04 |
| GCCCCCCA | -0.261 ± 0.042 |
| ATGCTGCA | -0.1863 ± 0.0017 |
| ACTTTTCT | 0.0687 ± 0.099 |
| GCTACAGC | -0.2 ± 0.12 |
| ACTGCCGA | -0.0354 ± 0.01 |
| CACACAAC | 0.279 ± 0.035 |

| Sequence | PBM E-score of 8-mer |
| --- | --- |
| AAACAGTT | 0.072 ± 0.084 |
| GATTGGCC | -0.196 ± 0.029 |
| AATAATGG | -0.255 ± 0.014 |
| TAACTAGA | -0.1774 ± 0.001 |
| CAATCACG | 0.148 ± 0.026 |
| TGTAAGAA | 0.0715 ± 0.045 |
| ATAAACAG | -0.0319 ± 0.083 |
| CGGTTATC | 0.121 ± 0.016 |
| GGTAGATA | -0.223 ± 0.064 |
| AACCCGCT | 0.0617 ± 0.0066 |
| ACTGAATA | -0.11 ± 0.046 |
| TCCGGCAA | 0.0485 ± 0.017 |
| CGAGGTAA | -0.0254 ± 0.017 |
| CTTAGGTA | -0.259 ± 0.019 |
| AGAGACCA | -0.065 ± 0.031 |
| AACGACTA | -0.089 ± 0.0069 |
| ATGATACA | -0.00224 ± 0.0098 |
| AAATACTT | 0.00657 ± 0.095 |
| GGCGTAAC | 0.0918 ± 0.041 |
| ACATACGC | 0.112 ± 0.091 |
| CTATGGGA | -0.062 ± 0.059 |
| AAGTGCCC | -0.143 ± 0.0036 |
| ACCTTTCA | 0.139 ± 0.07 |
| GACGATCC | -0.0686 ± 0.12 |
| ACGCGGCG | 0.0746 ± 0.07 |

| Sequence | PBM E-score of 8-mer |
| --- | --- |
| GTCCTAGA | -0.174 ± 0.092 |
| AAACCATG | -0.027 ± 0.02 |
| TGACGTCA | 0.105 ± 0.042 |
| AGAACAGC | -0.0931 ± 0.0076 |
| ATCATAGC | 0.0043 ± 0.09 |
| GAACTACC | -0.196 ± 0.1 |
| CTGCTGAC | 0.0546 ± 0.045 |
| CTAATCTA | -0.00937 ± 0.0061 |
| GAACACGC | 0.106 ± 0.025 |
| ACGCTCAC | 0.183 ± 0.048 |
| GTCAGATA | -0.129 ± 0.093 |
| CTGATTGC | -0.00855 ± 0.036 |
| GATACAGC | -0.197 ± 0.018 |
| TCTTAAGA | -0.108 ± 0.065 |
| CTCGGAGA | -0.275 ± 0.014 |
| AAATCGGG | -0.0434 ± 0.033 |
| ATATCTAA | -0.211 ± 0.025 |
| CTCCAATC | -0.185 ± 0.0044 |
| ATATTGTC | 0.195 ± 0.053 |
| GCCCAACC | -0.0859 ± 0.026 |
| CAGACACG | 0.105 ± 0.062 |
| ATGCTAAG | 0.0339 ± 0.034 |
